{"source": "PubChem BioAssay AID485344", "about": "(National Center for Advancing Translational Sciences (NCATS), 2010)", "note": "Out of some 340,000 compounds screened, about 6,900 (2%) were called active. No stated cut-off is given here; in the data, active means inhibition above about 30%; inactive means below that, where a call was filed. The entries are a selection whose mix differs from that of the whole data set. Where no call is shown, the source filed none."}
{"molecular_target": "D(2) dopamine receptor (Homo sapiens) (UniProt P14416)", "sequence (P14416 whole entry, looked up)": "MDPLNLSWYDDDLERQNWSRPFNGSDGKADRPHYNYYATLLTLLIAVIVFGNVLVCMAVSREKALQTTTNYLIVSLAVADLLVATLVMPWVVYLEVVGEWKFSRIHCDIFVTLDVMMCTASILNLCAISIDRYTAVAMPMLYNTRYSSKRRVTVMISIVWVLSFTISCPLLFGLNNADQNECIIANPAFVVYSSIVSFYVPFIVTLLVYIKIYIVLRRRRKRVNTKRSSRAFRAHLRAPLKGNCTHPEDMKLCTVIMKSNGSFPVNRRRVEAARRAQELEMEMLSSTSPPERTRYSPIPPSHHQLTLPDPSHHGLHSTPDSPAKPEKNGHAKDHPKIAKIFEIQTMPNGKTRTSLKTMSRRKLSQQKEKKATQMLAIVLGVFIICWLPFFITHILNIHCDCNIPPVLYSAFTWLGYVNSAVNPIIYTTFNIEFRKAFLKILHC", "test": "HTS Assay for Allosteric Antagonists of the Human D2 Dopamine Receptor: Primary Screen for Antagonists; further: 0% is about no effect", "conditions": "HEK293 TREx D2 cells, calcium flux, dopamine EC80; at 10 µM; stronger effect = higher value", "summary_of_the_method": "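Tetracycline-induced HEK293 TREx cells expressing D2 receptor forced-coupled to calcium signalling, loaded with no-wash calcium dye. Compounds added and calcium flux read 180 s, then dopamine added at EC80 and read a further 180 s.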"}
{"smiles": "COc1ccc(CCNc2nc3c(c(=O)n(C)c(=O)n3C)n2Cc2ccc(F)cc2)cc1OC", "inhibition": "1.26%"}
{"smiles": "CCc1ccccc1NC(=O)CC(c1ccc(F)cc1)N1Cc2ccccc2C1=O", "note": "(stereo unspecified)", "inhibition": "-0.887%"}
{"smiles": "COC(=O)c1ccc(NC(=O)c2nn(C)c3c2CS(=O)(=O)c2ccccc2-3)cc1", "inhibition": "-16.3%"}
{"smiles": "COc1cccc(NC(=S)Nc2cc(C)cc(C)n2)c1", "inhibition": "active: 44.4%"}
{"smiles": "COc1ccc(CNC(=O)CCc2c(C)nc3c(c2C)c(=O)n(C)c(=O)n3C)cc1", "inhibition": "-10.9%"}
{"smiles": "CCn1cc(C(=O)NCCc2ccccc2)c(=O)c2cc(S(=O)(=O)N3CCOCC3)ccc21", "inhibition": "-6.77%"}
{"smiles": "Cc1cccc(-n2ccnc2SCC(=O)Nc2ccccc2C(F)(F)F)c1", "inhibition": "12.8%"}
{"smiles": "O=C(CSc1nc2ccccc2n1Cc1ccc(F)c(Cl)c1)N1CCN(c2ccc(F)cc2)CC1", "inhibition": "-14.8%"}
{"smiles": "CCc1ccc(NC(=O)CSC2=Nc3ccccc3C3=NC(CCC(=O)NCc4cccs4)C(=O)N23)cc1", "note": "(stereo unspecified)", "inhibition": "-2.61%"}
{"smiles": "CCCc1nn2c(=O)cc(COC(=O)c3ccc(NC(=O)c4cccs4)cc3)nc2s1", "inhibition": "6.06%"}
{"smiles": "O=C(Nc1c(C(=O)N2CCN(c3ccc(F)cc3)CC2)oc2ccccc12)c1ccco1", "inhibition": "-5.63%"}
{"smiles": "COc1ccc(NC(=O)c2c(C)oc3ccc(O)c(CN4CCN(C)CC4)c23)cc1Cl", "inhibition": "9.79%"}
{"smiles": "COc1ccc(CCNC(=O)c2ccc(CS(=O)(=O)c3ccc(C)cc3)o2)cc1OC", "inhibition": "2.35%"}
{"smiles": "COc1cccc(N2CCN(S(=O)(=O)c3ccc(-c4cnc(C5CC5)o4)cc3)CC2)c1", "inhibition": "-8.38%"}
{"smiles": "Cc1ccc(-c2nnc(Nc3ccc(C(N)=O)cc3)c3ccccc23)cc1S(=O)(=O)N1CCCCC1", "inhibition": "7.17%"}
{"smiles": "COc1ccccc1CNC(=O)c1c2c(nc3ccccc13)C(=O)N(C1CCCCC1)C2", "inhibition": "-16.8%"}
{"smiles": "CSc1cccc(NC(=O)CN(C)S(=O)(=O)c2ccc3c(c2)n(C)c(=O)c(=O)n3C)c1", "inhibition": "0.135%"}
{"smiles": "Cc1nn2c(=O)cc(COC(=O)c3ccc(C(C)(C)C)cc3)nc2s1", "inhibition": "-1.7%"}
{"smiles": "O=c1ccc2cc(S(=O)(=O)N3CCCC3)ccc2[nH]1", "inhibition": "5.2%"}
{"smiles": "COc1cc(NC(=O)c2ccc(C(=O)Nc3cc(OC)c(Cl)cc3OC)cc2)c(OC)cc1Cl", "inhibition": "-14.2%"}
{"smiles": "CCCN1CCN(CCCNC(=O)Cn2nc(C)n3c(cc4cc(F)ccc43)c2=O)CC1", "inhibition": "20.9%"}
{"smiles": "CCC(=O)N1CCc2cc(Br)cc(S(=O)(=O)CCC(=O)NCc3ccccc3)c21", "inhibition": "0.343%"}
{"smiles": "COc1cccc(NC(=O)c2cc(CN3CCOCC3)on2)c1", "inhibition": "10.2%"}
{"smiles": "Cc1cccc(NC2=NCC(=O)N2CCc2ccccc2)c1", "inhibition": "active: 37.3%"}
{"smiles": "Cc1oc(-c2cccc(F)c2)nc1CN1CCCCC1CCn1cccn1", "note": "(stereo unspecified)", "inhibition": "active: 45.2%"}
{"smiles": "CCOc1ccc(CNC(=O)COc2cc(=O)n(C)c3ccccc23)cc1", "inhibition": "2.79%"}
{"smiles": "CC1=C(C(=O)Nc2ccc(C)cc2)C(c2ccccc2Cl)n2nnnc2N1", "note": "(stereo unspecified)", "inhibition": "4.22%"}
{"smiles": "Cc1ccc(NC(=O)c2cc(-c3ccc4c(c3)OCO4)on2)cc1", "inhibition": "-17.5%"}
{"smiles": "COc1ccc(-c2csc(C)n2)cc1Br", "inhibition": "active: 36.4%"}
{"smiles": "Cc1oc(-c2ccccc2)nc1CSc1nc2c(c(=O)[nH]1)CCC2", "inhibition": "active: 35.1%"}
{"smiles": "Fc1ccc(CNc2nc3c(-c4ccc(F)cc4)nnn3c3ccccc23)cc1", "inhibition": "-1.6%"}
{"smiles": "Cc1ccc(NC(=O)NCCc2c(C)nn(C)c2C)c(Cl)c1", "inhibition": "-2.45%"}
{"smiles": "COc1cc(C(=O)NCc2ccc3c(c2)CCN3C(=O)c2ccncc2)cc(OC)c1OC", "inhibition": "23.4%"}
{"smiles": "COCCCNC(=O)CN1C(=O)c2c(c3ccccc3n2C)C1c1ccc(OC)cc1", "note": "(stereo unspecified)", "inhibition": "14.7%"}
{"smiles": "COc1cccc(/C=C/c2nc(C#N)c(N(C)Cc3ccccc3)o2)c1", "inhibition": "-7.67%"}
{"smiles": "COc1ccc(-c2noc(CSCC(=O)Nc3ccc(C)cc3Br)n2)cc1OC", "inhibition": "-10.8%"}
{"smiles": "CCCCSc1ncnc2c1sc1nc(N3CCOCC3)c3c(c12)CCCC3", "inhibition": "5.46%"}
{"smiles": "Cc1ccccc1Nc1c(-c2c(F)cccc2Cl)nc2ccc(Br)cn12", "inhibition": "1.74%"}
{"smiles": "Cc1c(C(=O)Nc2cccc(C(F)(F)F)c2)sc2nc[nH]c(=O)c12", "inhibition": "12.6%"}
{"smiles": "CCOC(=O)c1ccc(NC(=O)CCCn2c(=O)c3cccn3c3ccccc32)cc1", "inhibition": "-23.9%"}
{"smiles": "Cc1cc(NC(=O)CSc2nnc(-c3ccccc3)c(-c3ccccc3)n2)no1", "inhibition": "active: 80.5%"}
{"smiles": "COc1cc(OC)cc(C(=O)Nc2ccc(-c3nc4ccccc4s3)cc2C)c1", "inhibition": "-17.7%"}
{"smiles": "COCC(=O)n1nc(-c2ccco2)nc1NCc1ccccc1Cl", "inhibition": "-13.8%"}
{"smiles": "CCOC(=O)c1ccc(NC(=O)Cn2cc(C(=O)C3CC3)c3ccccc32)cc1", "inhibition": "13.7%"}
{"smiles": "C=CCc1cccc2cc(-c3nc4ccc(C)cc4[nH]3)c(=O)oc12", "inhibition": "7.64%"}
{"smiles": "CCc1nn(CC(=O)NCc2ccco2)c(=O)c2cc3c(OC)cccc3n12", "inhibition": "10.2%"}
{"smiles": "COc1ccccc1CNC(=O)CCc1c(C)c2cc3c(C)c(C)oc3cc2oc1=O", "inhibition": "3.07%"}
{"smiles": "COc1ccc(CCNC(=O)c2ccc3c(c2)N(Cc2ccc(F)cc2)C(=O)c2ccccc2S3(=O)=O)cc1OC", "inhibition": "-6.07%"}
{"smiles": "COc1ccc2c(n1)Sc1nc3ccccc3nc1N2", "inhibition": "active: 49.4%"}
{"smiles": "Nc1c(N(CCC2=CCCCC2)C(=O)CCCOc2ccccc2)c(=O)[nH]c(=O)n1Cc1ccccc1", "inhibition": "active: 33%"}
{"smiles": "COCc1nnc(NC(=O)c2cc(OC)c(OC)c(OC)c2)s1", "inhibition": "-1.22%"}
{"smiles": "Cc1ccc(NC(=O)C2CCCN(S(=O)(=O)c3c(C)n[nH]c3C)C2)c(C)c1", "note": "(stereo unspecified)", "inhibition": "1.26%"}
{"smiles": "COc1ccc(OC)c(/C=C/c2nc3ccccc3c(=O)n2-c2ccc(F)c(Cl)c2)c1", "inhibition": "2.78%"}
{"smiles": "COc1ccc(C(=O)/C=C/c2cn(CC(O)CN3CCc4ccccc43)c3ccccc23)cc1OC", "note": "(stereo unspecified)", "inhibition": "5.68%"}
{"smiles": "CCOC(=O)c1[nH]cnc1C(=O)N1CCN(C(=O)OC(C)(C)C)CC1", "inhibition": "active: 31.5%"}
{"smiles": "CCC(C(=O)Nc1cc(C)ccc1C)n1c(=O)c(C(F)(F)F)nc2ccccc21", "note": "(stereo unspecified)", "inhibition": "1.62%"}
{"smiles": "Cc1cccc(CS(=O)(=O)c2ncc(Cl)c(C(=O)Nc3nnc(C(C)C)s3)n2)c1", "inhibition": "-7.91%"}
{"smiles": "O=C(CCn1c(=O)c2cccn2c2cccnc21)N1CCN(c2cccc(C(F)(F)F)c2)CC1", "inhibition": "5.96%"}
{"smiles": "O=C1C2CCCN2C(=O)N1CCCCN1CCN(c2ccccc2)CC1", "note": "(stereo unspecified)", "inhibition": "active: 61.9%"}
{"smiles": "CC(C)NC(=O)c1ccc(Cn2c(SCc3ccc(F)cc3)nc3cccnc32)cc1", "inhibition": "5.62%"}
{"smiles": "O=C(Nc1c(C(=O)N2CCN(c3ccccc3F)CC2)oc2ccccc12)c1cccc(F)c1", "inhibition": "24.5%"}
